Source: PubChem BioAssay AID1745853 (National Center for Advancing Translational Sciences (NCATS), 2022)
“And” between values parts separate entries of the source, which are not always exact repeats. Equal entries are not always repeated. The list shows a part of the results. The main result of the screen is listed elsewhere. These columns were measured beside it and carry no call.

Tests used:
Assay in all cases: Primary Screen for Target Class Profiling of Small Molecule Inhibitors of Methyltransferases
[1] = target: Glycine N-methyltransferase (Homo sapiens) (UniProt Q14749); details: purified enzyme, MTase-Glo SAH luminescence; measured here: GNMT inhibition; at 40 µM; stronger effect = lower value
In short: (§1)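 Each enzyme was reacted with SAM and its substrate, with compounds tested once at 40 uM; SAH formed was read by MTase-Glo luminescence.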

[2] = target: Guanidinoacetate N-methyltransferase (Homo sapiens) (UniProt Q14353); details: purified enzyme, MTase-Glo SAH luminescence; measured here: GAMT inhibition; at 40 µM; stronger effect = lower value
In short: as §1

[3] = target: Histamine N-methyltransferase (Homo sapiens) (UniProt P50135); details: purified enzyme, MTase-Glo SAH luminescence; measured here: HNMT inhibition; at 40 µM; stronger effect = lower value
In short: as §1

[4] = target: Nicotinamide N-methyltransferase (Homo sapiens) (UniProt P40261); details: purified enzyme, MTase-Glo SAH luminescence; measured here: NNMT inhibition; at 40 µM; stronger effect = lower value
In short: as §1

[5] = target: Phenylethanolamine N-methyltransferase (Homo sapiens) (UniProt P11086); details: purified enzyme, MTase-Glo SAH luminescence; measured here: PNMT inhibition; at 40 µM; stronger effect = lower value
In short: as §1
% is scaled to controls: 0 for no effect and ±100 for the full control effect.

| SMILES | activity change, negative = inhibition [1] | activity change, negative = inhibition [2] | activity change, negative = inhibition [3] | activity change, negative = inhibition [4] | activity change, negative = inhibition [5] |
| --- | --- | --- | --- | --- | --- |
| CN1C[C@H](NCc2nccs2)CCC[C@@H](C(=O)NC2CCOCC2)CC1=O | 2.97% | 1.51% | 2.77% | -0.025% | 2.09% |
| Cc1cc(-c2cc(C(=O)NCc3c(C)cc(C)[nH]c3=O)c3c(c2)ncn3C)ccn1 | -9.25% | -3.58% | -13.5% | -14.8% | -2.92% |
| Cc1ccccc1CNC(=O)Cn1ccc2cc(S(=O)(=O)N3CCCCC3)ccc21 | 0.894% | -0.665% | 4.59% | -2.33% | 0.277% |
| O=C(/C=C/c1ccc(O)cc1)OC[C@H]1O[C@@H](OC(=O)/C=C/c2ccccc2)[C@H](O)[C@@H](O)[C@@H]1O | 4.54% | 3.27% | 4.52% | -8.97% | 4.13% |
| CCCCCCCC/C=C\CCCCCCCC(=O)NCc1ccc(O)c(OC)c1 | -1.91% | 13.8% | 9.38% | -6.88% | 4.98% |
| CCOc1ccc(C2c3cccn3-c3sc4c(c3CN2C(=O)Nc2ccc(C)cc2)CCCC4)cc1 (stereo not drawn) | 2.68% | 0.284% | 6.18% | -2.73% | 6.41% |
| CC(C)NCC1(COc2ccccc2)C[C@@H](O)[C@@H](O)C1 (stereo partly drawn) | -0.507% | -5.38% | -8.04% | -3.98% | 9.09% |
| N=c1ccn2c(n1)O[C@H]1[C@H](O)[C@@H](CO)O[C@H]12 | -6.51% | 1.73% | -3.58% | -7.34% | 1.9% |
| Cc1ccc(S(=O)(=O)c2nnn3c2nc(N2CCN(C)CC2)c2cc(Cl)ccc23)cc1C | -19% | -2.35% | -8.34% | -12.9% | -7.95% |
| CC(=O)N[C@@H]1CN(S(=O)(=O)N2CCOCC2)C[C@H]1c1ccc(C)o1 | -4.8% | -2.25% | -0.922% | -0.285% | -0.019% |
| COCCn1ncc(N2CCCC(CC(=O)O)C2)cc1=O (stereo not drawn) | 2.51% | 4.93% | 3.99% | -0.696% | 15.1% |
| CCCCNC(=O)c1cc2n(n1)CC(C)(C(=O)NCc1ccc(C)cc1)N(C)C2=O (stereo not drawn) | 8.69% | 1.61% | 10.1% | 7.96% | 7.28% |
| Cn1cc(Nc2cnccc2C(=O)O)c2cccnc21 | 5.27% | 7.58% | 8.28% | -5.71% | 2.15% |
| C[C@]1(O)CCN(C(=O)c2cc(-c3ccsc3)n[nH]2)C[C@@H]1O | -5.69% | -3.11% | -0.486% | -6.86% | -1.48% |
| CNC(=O)c1ccc2cc([C@@]3(O)CCn4cncc43)ccc2c1 | 3.24% | 9.09% | 10.5% | -7.02% | 5.75% |
| Cc1ccccc1CCN1C(=O)c2ccc(-c3ccco3)n2CC1(C)C(=O)NC1CCCCCC1 (stereo not drawn) | -4.58% | 4.8% | -0.419% | -4.71% | -0.249% |
| Cc1ccc(C)c(N2CCN(C(=O)c3cc4n(n3)CC(C)(C(=O)NC3CCCC3)N(C)C4=O)CC2)c1 (stereo not drawn) | 7.64% | 0.262% | 4.4% | 11.1% | 7.01% |
| O=C(c1ccc2c(=O)nc3c(-c4ccccc4)n[nH]n3c2c1)N1CCN(c2ccc(F)cc2)CC1 | -2.33% | 0% | 2.88% | 6.02% | 1.14% |
| Cc1ccnn1-c1ccc(C(=O)N2CCN(S(=O)(=O)c3ccc(Cl)c(C(F)(F)F)c3)CC2)cc1 | 2.69% | -12.1% | 0.25% | -24.8% | -11% |

| SMILES | activity change, negative = inhibition [1] | activity change, negative = inhibition [2] | activity change, negative = inhibition [3] | activity change, negative = inhibition [4] | activity change, negative = inhibition [5] |
| --- | --- | --- | --- | --- | --- |
| COc1cccc(-c2cccc(C(=O)N3CCN(C(C)=O)CC3)c2)c1 | -3.04% | 0.427% | 1.54% | -0.825% | -14.7% |
| CC(C)CCn1c(=O)c2ccccc2n2c(=O)n(CC(=O)NCc3ccccc3Cl)nc12 | -8.56% | -2.75% | -2.46% | -15.2% | -5.84% |
| N#Cc1cc(-c2ccnc(Nc3ccc(N4CCOCC4)cc3)n2)ccc1OC1CCOCC1 | -15.4% | 0.862% | -2.5% | -16.1% | -3.87% |
| CC(C)(O)C1CCC(C)(C2CCC3(C)C4CCC5C(C)(C(=O)OC6OC(CO)C(O)C(O)C6O)C(O)CC(O)C56CC46CCC23C)O1 (stereo not drawn) | 0.108% | -8.29% | 4.46% | -18% | -1.59% |
| CC(=O)N1C[C@@H](CN(C)C)[C@H](NC(=O)Cc2ccc(OC(F)(F)F)cc2)C1 | -6% | -0.482% | 0.693% | -4.79% | 3.14% |
| O=C(CCCc1ccccc1)Nc1ccnn1C1CCN(C(=O)CCc2cnccn2)CC1 | -4.18% | -5.21% | -0.988% | -10.3% | -4.59% |
| CCCn1c(=O)c2ccc(C(=O)NC3CCCC3)cc2n2c(SCC(=O)c3ccc(OC)cc3)nnc12 | 8.67% | 0% | 4.36% | 3.16% | 7.81% |
| CC(C)OCCCn1c(=O)c2ccccc2n2c(SCc3ccc(F)cc3)nnc12 | -6.24% | 6.35% | 4% | -8.03% | -0.079% |
| Cc1cccc(NC(=O)c2ncn3c2C(=O)N(C2CC2)C(C)(C(=O)NC2CCCC2)C3)c1C (stereo not drawn) | -5.96% | 0% | -0.972% | -4.31% | -4.81% |
| CN(C)CCCNC(=O)c1ccc(-c2cc(O)c3ncccc3c2)cc1 | -13.3% and -31.5% | 4.87% | 11.1% and -17.4% | 0.812% and -7.28% | 4.29% and -0.552% |
| CCOCCCN1C(=O)c2cc(-c3ccccc3)nn2CC1(C)C(=O)NCc1ccccc1OC (stereo not drawn) | 7.21% | 0.848% | 10.6% | 10% | 5.59% |
| COc1cccc(OC)c1-c1ccc(C[C@H](NC(=O)c2c(Cl)cccc2Cl)C(=O)O)cc1 | 2.69% | -1.26% | 11.6% | -8.06% | 7.73% |
| CCCn1c(=O)c2ccc(C(=O)NC3CCCCC3)cc2n2c(=O)n(Cc3ccc(F)cc3Cl)nc12 | -0.846% | 1.02% | -4.08% | -5.42% | 0.331% |
| COC(=O)c1ncn2c1C(=O)N(c1ccc(C)c(C)c1)C(C)(C(=O)NCc1ccccc1)C2 (stereo not drawn) | -9.41% | 1.88% | -6.93% | 0.345% | -1.22% |
| CCC(C)NC(=O)c1ccc2c(=O)n(C)c3nn(CC(=O)Nc4ccccc4Cl)c(=O)n3c2c1 (stereo not drawn) | 1.16% | 0.049% | 1.69% | 1.43% | 1.79% |
| COc1ccc(CN2C(=O)c3cc4sccc4n3CC2(C)C(=O)NC2CCCCC2C)cc1 (stereo not drawn) | -1.7% | 6.92% | -0.247% | -2.93% | -2.47% |
| Fc1ccc2nc(CO[C@H]3CN(C4CCOCC4)C[C@H]3F)[nH]c2c1 | -6.86% | -3.36% | -3.42% | -7.25% | -8.59% |
| CCCn1c(=O)c2ccc(C(=O)NC(C)CC)cc2n2c(=O)n(CC(=O)Nc3ccc(C)c(C)c3)nc12 (stereo not drawn) | 0.557% | 3.02% | 0.101% | -4.36% | -4.44% |
| CC1OC(OC2C(C)OC(OC3C(OC(=O)/C=C/c4ccc(O)cc4)C(CO)OC(OC4(COC(=O)/C=C/c5ccc(O)cc5)OC(CO)C(O)C4O)C3OC3OCC(O)(CO)C3O)C(O)C2O)C(O)C(O)C1O (stereo not drawn) | 0.111% | -0.253% | 6.99% | -11.9% | -3.3% |

| SMILES | activity change, negative = inhibition [1] | activity change, negative = inhibition [2] | activity change, negative = inhibition [3] | activity change, negative = inhibition [4] | activity change, negative = inhibition [5] |
| --- | --- | --- | --- | --- | --- |
| O=C(CCc1nnc2n(Cc3ccc(F)cc3)c(=O)c3ccccc3n12)N1CCC(Cc2ccccc2)CC1 | -5.89% | 3.9% | 1.13% | -6.42% | -4.55% |
| Cc1cc(C(=O)N2Cc3cnn(C)c3Nc3ccccc32)ccc1CNC(=O)N1CCN(Cc2cc(O)cc(O)c2)CC1 | -23.6% | 7.47% | 1.81% | -20.5% | -5.9% |
| COc1ccc(-c2n[nH]n3c2nc(=O)c2ccc(C(=O)NCCc4ccc(OC)c(OC)c4)cc23)cc1 | -12.1% | 3.04% | -2.79% | -1.76% | -1.99% |
| C=C(C)[C@@H]1CCC2=CC(=O)C[C@@H](C)[C@]2(C)C1 |  | 7.82% |  | -14.5% | -5.94% |
| CC(C)CN1CCC[C@H]1c1nc(-c2ccnc(NS(C)(=O)=O)c2)no1 | -2.62% | -2.21% | -1.02% | -6.9% | 9.71% |
| C[C@@H](c1ncncc1F)[C@](O)(Cn1cncn1)c1ccc(F)cc1F | -5.8% | 2.49% and 1.37% | -3.15% | -9.07% and -11.4% | 4.2% and -2.31% |
| CCOCCCN1C(=O)c2cc3occc3n2CC1(C)C(=O)NC1CCCCCC1 (stereo not drawn) | 4.2% | 0.824% | 7.92% | 8.72% | 0.655% |
| COC(=O)c1ncn2c1C(=O)N(Cc1ccccc1C)C(C)(C(=O)NC1CCCCCC1)C2 (stereo not drawn) | 4.37% | 0% | 7.9% | 12.9% | 2.94% |
| Cc1c(NC(=O)c2ccc(C(C)(C)C)cc2)cccc1-c1cn(C)c(=O)c(Nc2ccc(C(=O)N3CCOCC3)cc2)n1 | 0.336% | 10.9% | 4.11% | -19.3% | -1.48% |
| C/C=C(\C)C(=O)O[C@@H]1CC2[C@@H](CC=C3C[C@@H](O[C@H]4C[C@H](OC)[C@H](O[C@H]5C[C@H](OC)[C@H](O[C@@H]6O[C@H](C)[C@@H](O[C@H]7C[C@H](OC)[C@H](O[C@@H]8O[C@H](CO)[C@@H](O)[C@H](O)[C@H]8O)[C@@H](C)O7)[C@H](OC)[C@H]6O)[C@@H](C)O5)[C@@H](C)O4)CC[C@@]32C)[C@@]2(O)CC[C@H](C(C)=O)[C@@]12C (stereo partly drawn) | 0% | 17.4% | 6.36% | 4.3% | 11.4% |
| CN1CCN(CCNC(=O)c2cc(-c3ccccc3)cn2C)CC1 | -4.02% | -4.82% | -5.66% | -3.36% | -2.93% |
| COCCOc1ccc(-c2noc([C@@H]3CCCN3C3CCCCC3)n2)cn1 | 1.76% | -4.97% | 1.94% | -1.84% | 1.8% |
| COCc1noc(-c2ccc(NC[C@H]3CCc4ccccc4O3)nc2)n1 | -5.64% | -4.46% | -4.09% | -6.83% | -7.85% |
| COC(=O)c1ccc(NS(=O)(=O)c2ccc3[nH]c4c(c3c2)CCCC4)cc1 | -15.6% | -1.01% | -5.7% | -7.41% | -2.23% |
| CCOC(=O)c1ccc2c(c1)[C@@H]1C=CC[C@@H]1[C@H](c1ccc(C)cc1)N2 | -21.1% | -4.74% | -13.3% | -21.1% | -16% |
| CCNc1nccc(N2CCC(CC(=O)NCC(C)C)CC2)n1 | -1.81% | 0.169% | -67.2% | -3.15% | -1.28% |
| Cc1ccc(C(=O)N2CCC(N3CCOCC3=O)CC2)cc1 | 1.44% | -4.76% | 0.627% | 1.93% | -3.17% |
| COc1cccc(CN2C(=O)c3nc4ccccc4n3CC2(C)C(=O)NC2CCCCC2C)c1 (stereo not drawn) | -0.347% | 4.95% | 4.24% | -0.803% | -1.29% |
